# Assay results taken from the supplement of paper PMC10126150.
# Values marked as one replicate rest on one cluster of the flow cell; about a third of the high ones do not repeat.
# Tested on: ATP
# Assay: switch fluorescence ratio, 500 uM ATP over buffer (Cy3 cluster intensity, sum of 5 cycles each) (fold (ratio)); higher = stronger signal-on switching upon ATP binding; sequences stand for … in TCGTCGGCAGCGTCAGATGTGTATAAGAGACAGTTTTTTTTTTTTTTTTTTTTTTTTT…TC
# Settings: aptamer strand: ATP DNA aptamer (quencher-CACCTGGGGGAGTATTGCGGAGGAAGG + anchor), 100 nM annealed; ATP concentration: 500 uM; one replicate
# In short: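 The fluorescence ratio divides summed target-cycle Cy3 intensity by summed buffer-cycle Cy3 intensity for each cluster and is averaged per switch-domain sequence. Cy3-labelled switching-strand clusters on a modified Illumina MiSeq flow-cell were annealed to 100 nM quencher-labelled ATP aptamer, then imaged in selection buffer and again after 15 min with 500 uM ATP at 22 °C. Five such cycles were run, with NaOH stripping and re-annealing between them, and clusters outside 100-1000 RFU were excluded.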
# 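Note: ATP exposure 15 min at 22 °C before imaging.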
row,Sequence,switch fluorescence ratio
1,GGCGCGGATT,0.972
2,GGCGCGGGAG,0.98
3,GGCGCTAGGT,1
4,GGCGCTGTGG,1.03
5,GGCGGATCGT,0.996
6,GGCGGCCATC,1.01
7,GGCGGCCCGT,0.984
8,GGCGGGCACT,0.982
9,GGCGGGGAGA,0.987
10,GGCGGGGATC,1.03
11,GGCGGTACGT,0.974
12,GGCGGTCGT,1.01
13,GGCGGTGTGT,0.998
14,GGCGGTTGT,0.973
15,GGCGGTTTTG,0.975
16,GGCGTAACG,1.02
17,GGCGTAATGT,1.05
18,GGCGTACA,0.981
19,GGCGTCGCGC,1.03
20,GGCGTCGTTG,0.963
21,GGCGTCTAGC,0.998
22,GGCGTCTATA,0.982
23,GGCGTGAACA,0.97
24,GGCGTGCTAT,0.991
25,GGCGTGGGAG,0.982

row,Sequence,switch fluorescence ratio
1,GGCGTGGTAA,0.977
2,GGCGTGTCTG,0.973
3,GGCGTTTTAT,0.993
4,GGCTAAAAAG,1.04
5,GGCTAACTCT,1
6,GGCTAAGTGA,1.02
7,GGCTACACCC,1.05
8,GGCTACCCGT,1.02
9,GGCTACTGTG,1.03
10,GGCTATAGTC,1.05
11,GGCTATGGA,0.995
12,GGCTATGGGA,1.01
13,GGCTATTGTA,1
14,GGCTCACTTT,1.02
15,GGCTCAGGTT,1.06
16,GGCTCGTGGT,0.993
17,GGCTCTACGC,1.08
18,GGCTCTCATG,0.989
19,GGCTCTCGAG,1.03
20,GGCTCTTGGC,0.996
21,GGCTGAGCCA,1.01
22,GGCTGCAGTA,1.01
23,GGCTGCCAGG,1.03
24,GGCTGCGGTG,0.978
25,GGCTGCTAGT,0.983

row,Sequence,switch fluorescence ratio
1,GGCTGCTTAT,1.03
2,GGCTGGCTTC,1.04
3,GGCTGGGCTC,1.03
4,GGCTGGGGCC,1.01
5,GGCTTAGTAG,0.993
6,GGCTTATGG,0.981
7,GGCTTGAAGA,0.982
8,GGCTTGTAAT,0.96
9,GGCTTTACC,1.03
10,GGCTTTGGTT,1
11,GGGAAAAGC,0.981
12,GGGAAACATA,1.01
13,GGGAAACGCC,0.947
14,GGGAACCAGT,0.97
15,GGGAACCCTC,1
16,GGGAACGACA,1.05
17,GGGAACGAGA,0.971
18,GGGAACTAC,1.03
19,GGGAAGATGG,0.974
20,GGGAAGGCAC,1.07
21,GGGAAGTTTC,1.03
22,GGGAATCCTA,1.01
23,GGGAATTTCA,1.02
24,GGGACAACCA,1.02
25,GGGACAAGCG,0.968

row,Sequence,switch fluorescence ratio
1,GGGACACTTT,0.962
2,GGGACAGCTT,1.05
3,GGGACGCATT,4
4,GGGACTGAG,0.997
5,GGGAGATCAG,1.01
6,GGGAGATGCG,0.966
7,GGGAGCAAGT,1.05
8,GGGAGGACAG,1.01
9,GGGAGGCTCA,0.984
10,GGGAGGCTTG,1.05
11,GGGAGGTTAC,1.03
12,GGGAGTAAGC,1.03
13,GGGAGTCCTT,0.932
14,GGGAGTGGCT,1.02
15,GGGAGTTGAG,1.01
16,GGGAGTTGGT,0.999
17,GGGAGTTTGA,0.979
18,GGGATAAACA,1.02
19,GGGATACATA,1.03
20,GGGATACGGG,2.54
21,GGGATACTGG,1.02
22,GGGATAGTAC,1.11
23,GGGATATTCG,1.13
24,GGGATCTTTT,1
25,GGGATGGAAT,0.983

row,Sequence,switch fluorescence ratio
1,GGGATGGCGC,1.01
2,GGGATGTATG,1.01
3,GGGATGTGCC,0.979
4,GGGATGTGTG,0.991
5,GGGATTAATA,1.02
6,GGGATTGCAA,0.98
7,GGGATTTGAC,1.01
8,GGGCAATGGG,1.02
9,GGGCACATCG,1.12
10,GGGCACGAGC,1.02
11,GGGCAGAGGT,0.98
12,GGGCAGCGGA,0.94
13,GGGCAGTTTG,0.986
14,GGGCATGAGT,0.959
15,GGGCCAAATC,1
16,GGGCCAGTAC,1.17
17,GGGCCCAACG,0.991
18,GGGCGAGATT,1.05
19,GGGCGCCACT,0.964
20,GGGCGCCTCC,1.01
21,GGGCGGCATT,1.01
22,GGGCGGGCGG,1
23,GGGCGGGCTC,1.1
24,GGGCGGGTCG,0.912
25,GGGCGGGTGG,1.02

row,Sequence,switch fluorescence ratio
1,GGGCGTACTT,0.995
2,GGGCGTGTA,0.976
3,GGGCGTTTTG,0.967
4,GGGCTACCGG,1.17
5,GGGCTACTTA,0.978
6,GGGCTAGAAC,1.02
7,GGGCTATGTG,0.959
8,GGGCTGAGTG,1.03
9,GGGCTTGCTG,0.993
10,GGGGAAATTC,1.14
11,GGGGAACTCC,1.28
12,GGGGAAGCC,1.02
13,GGGGAAGTTG,0.996
14,GGGGACAGGC,0.984
15,GGGGACCCAC,0.971
16,GGGGAGAATC,1
17,GGGGCAGGGC,0.971
18,GGGGCAGTCG,1.01
19,GGGGCATTGT,1
20,GGGGCCCGAC,1.01
21,GGGGCCGGAC,0.908
22,GGGGCCTATA,1.05
23,GGGGCCTCCG,1.28
24,GGGGCGACGA,0.975
25,GGGGCGCAAT,2.45

row,Sequence,switch fluorescence ratio
1,GGGGCGCGTG,0.969
2,GGGGGCATAG,1.01
3,GGGGGCTAGA,0.962
4,GGGGGTAGAA,0.99
5,GGGGGTGATA,0.998
6,GGGGTAACTG,0.995
7,GGGGTAAGCC,1.03
8,GGGGTATCAG,1.03
9,GGGGTCCGCC,1.16
10,GGGGTCGTAC,0.998
11,GGGGTCGTGC,0.944
12,GGGGTCTCGA,0.995
13,GGGGTCTGGC,0.992
14,GGGGTCTTT,0.986
15,GGGGTGCGTA,1.03
16,GGGGTGTACG,1
17,GGGGTGTCG,1.13
18,GGGGTTACCA,1.01
19,GGGGTTGCAG,1.09
20,GGGGTTTCAA,0.97
21,GGGTAAAAGG,0.99
22,GGGTAAACGC,0.981
23,GGGTAACAGC,0.962
24,GGGTAACGGG,0.979
25,GGGTAAGACC,0.959

row,Sequence,switch fluorescence ratio
1,GGGTAAGTCG,0.998
2,GGGTAATAAT,0.974
3,GGGTAATACA,1.04
4,GGGTACAGGC,0.974
5,GGGTACCGTC,0.995
6,GGGTACTGCC,1.02
7,GGGTAGCTGA,0.984
8,GGGTATAAAT,1.01
9,GGGTATAGTG,0.995
10,GGGTATCTTA,1.02
11,GGGTATTGCT,0.967
12,GGGTCAATTG,1.02
13,GGGTCACTCG,1.04
14,GGGTCAGGCA,0.988
15,GGGTCATAGA,1
16,GGGTCCCATC,1.06
17,GGGTCGCTGG,0.996
18,GGGTCGTCGA,0.994
19,GGGTCGTGTC,1.06
20,GGGTCTTAGA,0.987
21,GGGTGACGTC,0.995
22,GGGTGATAAA,0.985
23,GGGTGATAG,0.99
24,GGGTGCGCTC,1.02
25,GGGTGGAAGG,0.996
